Out of some 280,000 compounds screened, about 1,100 (0.39%) were called active. Inconclusive means that the source gave no clear call. Such entries were picked first, then a sample of the others. The call rests on the fitted dose curve; in most records, active means well fitted inhibition curve with a large enough effect; inconclusive means small, poorly fitted or top-dose-only effect, or effect the other way; inactive means flat fitted curve, though single readings scatter. A potency beside an inconclusive call is a rough fit, not a confirmed value.
target: Microtubule-associated protein tau (Homo sapiens) (UniProt P10636); assay: qHTS for Inhibitors of Tau Fibril Formation, Fluorescence Polarization; conditions: K18 P301L tau heparin fibrillization, Alexa594 FP, 6 h; series mostly up to 57.7 µM; activity, negative = inhibition: at the top concentration; further: nearly all actives have a fitted effect of over 55% in size
UniProt P10636, sequence (P10636 whole entry, looked up): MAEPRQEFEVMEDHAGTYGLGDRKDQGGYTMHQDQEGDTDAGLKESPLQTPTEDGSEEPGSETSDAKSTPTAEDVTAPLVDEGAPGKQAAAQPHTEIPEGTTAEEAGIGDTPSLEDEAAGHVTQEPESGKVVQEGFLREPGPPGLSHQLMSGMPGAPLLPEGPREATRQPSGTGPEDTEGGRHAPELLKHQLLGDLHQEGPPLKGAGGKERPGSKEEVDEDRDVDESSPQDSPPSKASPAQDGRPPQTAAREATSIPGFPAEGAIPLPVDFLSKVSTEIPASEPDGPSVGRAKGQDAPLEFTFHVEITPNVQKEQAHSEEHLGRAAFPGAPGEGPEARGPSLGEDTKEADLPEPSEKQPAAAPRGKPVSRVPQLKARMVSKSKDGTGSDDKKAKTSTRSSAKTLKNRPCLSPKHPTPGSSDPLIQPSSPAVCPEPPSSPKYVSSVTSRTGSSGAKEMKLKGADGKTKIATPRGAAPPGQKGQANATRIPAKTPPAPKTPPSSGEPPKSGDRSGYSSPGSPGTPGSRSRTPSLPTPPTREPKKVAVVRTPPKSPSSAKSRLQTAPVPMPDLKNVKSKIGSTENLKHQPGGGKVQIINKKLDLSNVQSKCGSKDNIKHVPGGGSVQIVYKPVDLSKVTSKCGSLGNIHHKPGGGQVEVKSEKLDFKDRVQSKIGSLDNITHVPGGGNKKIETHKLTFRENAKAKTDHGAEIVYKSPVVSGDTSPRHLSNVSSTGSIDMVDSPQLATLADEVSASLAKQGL
Method in brief: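 Heparin (20 uM) drove fibril formation of recombinant tau K18 P301L, 15 uM unlabeled with 0.24 uM Alexa 594 label, for 6 hr at 37 C in 100 mM sodium acetate pH 7. Fluorescence polarization (555/632 nm) read 1 hr after 30 uM ThT.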
On the % scale 0 is the no-effect control and ±100 the full control effect; potency means the concentration at half of the fitted maximal effect; tags describe the fitted curve by direction and shape.

Potency, active:
O=c1[nH]c2ccccc2c(O)c1O 7.08 µM

Potency, inconclusive:
Cc1[nH]c2ccccc2c1/C=N/Nc1nc(Nc2ccccc2)nc(N2CCOCC2)n1 2 µM [activator, full curve]
COc1ccc(-c2sc(NC(C)=O)nc2-c2ccccc2)cc1 11.2 µM [inhibitor, partial curve, poor fit]
O=C1C(Cl)=C(Nc2ccccc2)C(=O)c2ccccc21 7.94 µM [inhibitor, partial curve]
CC1(OC(=O)CCc2ccccc2)C(=O)C=C2C=C(c3ccsc3)OC=C2C1=O (centres undefined) 39.8 µM [inhibitor, single point]
CCOC(=O)c1ccc(NC(=S)N2CCSC2c2c(F)cc(F)cc2F)cc1 (centres undefined) 22.4 µM [inhibitor, partial curve]
Cc1cc(C)nc(SCC(=O)NC2=NN=C(c3ccc(Br)cc3)CS2)n1 17.8 µM [inhibitor, single point]
O=C1N/C(=N/N=C/c2ccc(O)cc2)SC1Cc1ccccc1 (centres undefined) 44.7 µM [inhibitor, single point]
CCN=c1scc(-c2cccs2)n1/N=C/c1cc(OC)ccc1O 10 µM [activator, partial curve]
COc1ccc(-c2noc(CSc3nc4ccc(C)cc4[nH]3)n2)cc1 12.6 µM [inhibitor, partial curve]
COc1ccccc1CNC(=O)Cn1nc(C)n2cccc2c1=O 17.8 µM [inhibitor, partial curve]
COc1ccccc1/C=C/C(=O)/C=C/c1ccccc1O 3.98 µM [inhibitor, single point]
C/C(N)=C(/C#N)C(=O)CSc1nn(-c2ccc(Cl)cc2)c(=S)s1 17.8 µM [inhibitor, partial curve]
Cc1ccc(CN2C(=O)SC(Nc3ccc(Cl)cc3)C2=O)cc1 (centres undefined) 25.1 µM [inhibitor, single point]
Oc1cccc2c(NC(=S)Nc3ccc(OC(F)F)cc3)cccc12 22.4 µM [inhibitor, partial curve]

activity, negative = inhibition, inactive:
COc1ccc(N=C2CCS(=O)(=O)c3sccc32)cc1 7.15%
Cc1ccc(N2C(=O)c3sc4nnc(C)c(=O)n4c3C2=O)cc1 5.76%
CC(NCC(=O)Nc1cc(S(=O)(=O)N2CCCCCC2)ccc1Cl)c1ccccc1 (centres undefined) 3.83%
CC(Sc1nnc(-c2cccnc2)n1-c1ccccc1)C(=O)NCc1ccc2c(c1)OCO2 (centres undefined) 5.22%

— PubChem BioAssay AID1468 (National Center for Advancing Translational Sciences (NCATS), 2008)
